Results as given in publication PMC6919601, “Identification of Plasmodium dipeptidyl aminopeptidase allosteric inhibitors by high throughput screening” (PLoS ONE, 2019).
The campaign covered roughly 110,000 compounds. About 230 (0.21%) showed an effect of 50% or more. Some of the results follow.

These molecules were tested against DPAP1 (Plasmodium falciparum, UniProt Q8IIJ9) (assay: primary screen, percent inhibition; read by cleavage of a fluorogenic dipeptide substrate; higher = more effect of the substance).
DPAP1, sequence (Q8IIJ9 whole entry, looked up): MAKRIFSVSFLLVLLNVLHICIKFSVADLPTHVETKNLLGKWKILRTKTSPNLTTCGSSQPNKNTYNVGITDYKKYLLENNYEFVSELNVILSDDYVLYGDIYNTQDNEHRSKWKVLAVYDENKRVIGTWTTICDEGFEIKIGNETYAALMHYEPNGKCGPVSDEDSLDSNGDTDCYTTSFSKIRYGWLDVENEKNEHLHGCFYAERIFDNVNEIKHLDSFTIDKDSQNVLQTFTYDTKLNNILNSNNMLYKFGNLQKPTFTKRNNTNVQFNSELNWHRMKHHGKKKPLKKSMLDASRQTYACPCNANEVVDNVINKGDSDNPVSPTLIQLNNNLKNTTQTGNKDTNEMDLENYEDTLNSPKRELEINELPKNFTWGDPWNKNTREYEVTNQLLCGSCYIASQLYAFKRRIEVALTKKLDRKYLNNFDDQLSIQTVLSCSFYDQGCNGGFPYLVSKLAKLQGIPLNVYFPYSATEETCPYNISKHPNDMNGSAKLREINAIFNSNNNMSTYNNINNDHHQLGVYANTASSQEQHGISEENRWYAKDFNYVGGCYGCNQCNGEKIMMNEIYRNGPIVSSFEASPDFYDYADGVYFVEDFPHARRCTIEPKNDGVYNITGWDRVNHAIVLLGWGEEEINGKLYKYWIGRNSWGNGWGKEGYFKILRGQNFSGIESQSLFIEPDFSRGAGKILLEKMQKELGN
Parameters: species or system P. falciparum D10 trophozoite lysates; single well
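Further: 30 min substrate incubation versus DMSO and 10 µM JCP410 controls.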

Compared with `CS(=O)(=O)N(CC(=O)N1CCN(c2ccccc2)CC1)c1cccc(Br)c1`, `CS(=O)(=O)N(CC(=O)N1CCCCCC1)c1ccccc1F` is lower in “% Inhibition @ 10 uM” value: 5.73% for the first, -8.67% for the second.

First: Cc1ccc(CNCc2cccnc2)cc1
Second: COc1cccc(CNCc2c(C(=O)O)n(Cc3ccc(F)cc3)c3cc(C)ccc23)c1
The “% Inhibition @ 10 uM” value of the first is lower: -4.03% for the first, 5.68% for the second.

Going from `COc1ccc(C(=O)N2CCN(C3CCCC3)CC2)cc1OC` to `Cc1cc(C)c(C(=O)c2ccc(C(=O)N3CCN(C)CC3)cc2)c(C)c1`, the “% Inhibition @ 10 uM” value rises from -11.1% to 0.215%.

First: CC1CC(C)CN(C(=O)Nc2cccc3ccccc23)C1 (stereo not shown)
Second: CN1CCN(C(=O)Nc2ccccc2)CC1
The “% Inhibition @ 10 uM” value of the first is higher: 5.04% for the first, -2.03% for the second.

Compared with `CC(C)CC/N=c1/c(-c2ccc(C(C)C)cc2)c(O)c1=O`, `CC1=C(C(=O)OCCOC(C)C)C(c2c(F)cccc2Cl)CC(=O)N1` (stereo not shown) is lower in “% Inhibition @ 10 uM” value: 0.0281% for the first, -1% for the second.

Going from `O=C(O)C1CCCN(C(=O)c2ccccc2)C1` (stereo not shown) to `O=C(O)C1CC(=O)N(c2ccccc2O)C1` (stereo not shown), the “% Inhibition @ 10 uM” value rises from 3.27% to 4.68%.

Going from `COc1cccc2cc(C(N)=O)cnc12` to `COCCCNC(=O)C1CC(=O)OC1c1ccc(OC)c(OC)c1` (stereo not shown), the “% Inhibition @ 10 uM” value falls from 6.38% to -2.92%.

Compared with `COc1ccccc1NC(=O)c1cc(N)cc(C(=O)Nc2ccccc2OC)c1`, `CCc1ccccc1NC(=O)c1ccccc1F` is lower in “% Inhibition @ 10 uM” value: 0.0285% for the first, -3.71% for the second.

First: O=C(Nc1cccc(-c2nc3ccccc3s2)c1)c1ccc(Br)cc1
Second: Cc1cccc(NC(=O)C(O)c2ccccc2)c1 (stereo not shown)
The “% Inhibition @ 10 uM” value of the first is higher: 5.35% for the first, 1.63% for the second.

First: O=C(c1ccncc1)N1N=C2CCCCCC2C1(O)C(F)(F)F (stereo not shown)
Second: Cc1cc2cc(CNC(=S)NC3CCCCC3)ccc2n1C
The “% Inhibition @ 10 uM” value of the first is lower: -3.34% for the first, -1.89% for the second.

Going from `CCOC(=O)/C(C#N)=C\c1ccc(C)cc1C` to `CC(=O)NS(=O)(=O)c1ccc(NC(=O)COc2cc(C)ccc2C)cc1`, the “% Inhibition @ 10 uM” value rises from 0.968% to 1.84%.

Compared with `O=C1CC(SC2=NCCS2)C(=O)N1c1ccc(Br)cc1` (stereo not shown), `O=C(O)c1ccc(N2C(=O)CC(Nc3ccc(Cl)cc3)C2=O)cc1` (stereo not shown) is higher in “% Inhibition @ 10 uM” value: -1.37% for the first, -1.28% for the second.

First: CC(C(=O)Nc1nccs1)N1Cc2ccccc2C1=O (stereo not shown)
Second: CC(C)OCCCNC(=O)CCN1C(=O)c2ccccc2Sc2ncccc21
The “% Inhibition @ 10 uM” value of the first is higher: -2.13% for the first, -4.76% for the second.

Compared with `CC1CCN(Cc2c(O)ccc3occ(C(=O)c4ccccc4)c23)CC1`, `CC(CNC1CCN(Cc2ccccc2)CC1)c1ccccc1` (stereo not shown) is lower in “% Inhibition @ 10 uM” value: 2.46% for the first, -0.446% for the second.

First: CCOC(=O)c1c(C)[nH]c(C)c1S(=O)(=O)NCCCN1CCCC1=O
Second: CC(C(=O)NCCCN1CCCC1=O)n1sc2ccccc2c1=O (stereo not shown)
The “% Inhibition @ 10 uM” value of the first is higher: 0.706% for the first, -10.2% for the second.

Compared with `COCCNC(=O)c1ccc(CS(=O)(=O)Cc2ccc(C)cc2)o1`, `COCCNC(=O)c1ccc2c(c1)ncn2-c1ccc(F)cc1F` is higher in “% Inhibition @ 10 uM” value: 0.514% for the first, 2.8% for the second.

Compared with `O=C(CNCc1ccccc1)NC12CC3CC(CC(C3)C1)C2`, `Cc1nn(C)c(C)c1NC(=O)C12CC3CC(CC(C3)C1)C2` is lower in “% Inhibition @ 10 uM” value: 6.53% for the first, -1.02% for the second.

First: O=C(COc1ccc(Cl)cc1)Nc1ccccc1Br
Second: CC(C)(C)NS(=O)(=O)c1ccc(OCC(=O)Nc2cc(C(F)(F)F)ccc2Cl)cc1
The “% Inhibition @ 10 uM” value of the first is lower: -2.65% for the first, 3.04% for the second.

Going from `COc1ccc2c(Cl)c(C(=O)Nc3ccc(N(C)C(C)=O)cc3)sc2c1` to `COc1ccc(NC(=O)/C(=C/c2ccco2)NC(=O)c2ccc(Br)o2)cc1`, the “% Inhibition @ 10 uM” value falls from 5.83% to -2.68%.

First: CC(=O)N1CCc2nc3sc(C(=O)Nc4cc(C)on4)c(N)c3c(C(F)(F)F)c2C1
Second: Cc1cc(C(=O)Nc2sc3c(c2C#N)CCCC3)no1
The “% Inhibition @ 10 uM” value of the first is lower: -3.34% for the first, 3.55% for the second.

First: O=C(C1CCC(=O)N1Cc1ccc(F)cc1)N1CCC2(CC1)OCCO2 (stereo not shown)
Second: COc1ccc(CC(=O)N2CCN(Cc3noc(CCC(=O)N4CCC(C)CC4)n3)CC2)cc1
The “% Inhibition @ 10 uM” value of the first is lower: -0.0542% for the first, 1.41% for the second.

Going from `O=C(O)CCc1nnc(O)c2[nH]c3ccc(Cl)cc3c12` to `Nc1c(C(=O)NCCc2ccc(Cl)cc2)nnn1Cc1ccc(Br)cc1`, the “% Inhibition @ 10 uM” value falls from 1.81% to 0.813%.

Going from `CCOC(=O)c1cc(S(=O)(=O)N2CCN(Cc3ccccc3)CC2)cn1C` to `CCOc1ccccc1N1CCN(Cc2cccc(F)c2)CC1`, the “% Inhibition @ 10 uM” value rises from -2.84% to 3.8%.

Compared with `O=C(Nc1ccccc1)Nc1cccc(C(F)(F)F)c1`, `O=c1c(CN2CCN(c3cccc(C(F)(F)F)c3)CC2)coc2ccccc12` is lower in “% Inhibition @ 10 uM” value: 1.33% for the first, -3.65% for the second.

Going from `Cc1ccc(-c2c(NCCN3CCN(Cc4ccccc4)CC3)c(=O)c2=O)cc1` to `OCCN1CCN(Cc2ccccc2Br)CC1`, the “% Inhibition @ 10 uM” value rises from -3.47% to -1.62%.

First: O=C(Nc1ccc(S(=O)(=O)Nc2cccc(F)c2)cc1)c1ccc(Br)o1
Second: Cc1noc(NS(=O)(=O)c2ccc(NC(=O)COc3cc(Cl)ccc3Cl)cc2)c1C
The “% Inhibition @ 10 uM” value of the first is lower: -3.39% for the first, 9.33% for the second.

Compared with `Cc1ccccc1CCNC(=O)CCn1nc(C)c2c(C)n(-c3ccccc3)nc2c1=O`, `CC(C)OCCCn1c(=O)c2ccccc2n2c(CCC(=O)NCCc3ccccc3)nnc12` is higher in “% Inhibition @ 10 uM” value: -4.38% for the first, 3.54% for the second.

Going from `Cc1nnc(N2C(=O)c3oc4ccccc4c(=O)c3C2c2ccccc2F)s1` (stereo not shown) to `COc1cc(C2c3c(oc4ccccc4c3=O)C(=O)N2c2nccs2)cc(Br)c1O` (stereo not shown), the “% Inhibition @ 10 uM” value rises from -7.38% to 3.12%.

First: C#CCSc1nc2c(c(=O)n1Cc1ccccc1)C1(CCCCC1)Cc1ccccc1-2
Second: CCSc1nc2c(c(=O)n1-c1ccc(C)cc1)C1(CCCCC1)Cc1ccccc1-2
The “% Inhibition @ 10 uM” value of the first is higher: 2.92% for the first, -3.44% for the second.

First: COc1ccc(Cc2nnc3sc(/C=C/c4cccc(C(F)(F)F)c4)nn23)cc1
Second: COc1ccc(C(=O)NC2(C(F)(F)F)C(=O)Nc3c2c(=O)[nH]c(=O)n3-c2ccccc2)cc1 (stereo not shown)
The “% Inhibition @ 10 uM” value of the first is higher: -3.53% for the first, -5.23% for the second.

First: CCCC1CCc2c(sc(NC(=O)c3ccc(F)cc3)c2C(N)=O)C1 (stereo not shown)
Second: CN(C)c1ccc(NC(=O)Cc2ccc(F)cc2)cc1
The “% Inhibition @ 10 uM” value of the first is lower: -8.18% for the first, -0.872% for the second.

Compared with `CC1(C)CC(=O)C2=C(C1)c1c(ccc3ccccc13)NC2c1ccccc1` (stereo not shown), `O=S(=O)(c1ccc2ccccc2c1)N1CCSC1c1ccccc1` (stereo not shown) is lower in “% Inhibition @ 10 uM” value: -0.736% for the first, -4.6% for the second.

First: COc1ccc2cc3cc(C(=O)NCCCN4CCN(C)CC4)sc3nc2c1
Second: COc1ccc(C2=NN(CC(=O)NCCCN3CCCC3=O)C(=O)CC2)cc1
The “% Inhibition @ 10 uM” value of the first is higher: 1.22% for the first, -3.58% for the second.

First: CCO/C(O)=C1\C(C)=Nc2nnnn2C1c1c[nH]c2ccccc12 (stereo not shown)
Second: CCOc1cc2c(cc1OCC)C(c1ccccc1)OC(=O)C2 (stereo not shown)
The “% Inhibition @ 10 uM” value of the first is lower: -1.81% for the first, 0.0069% for the second.

Going from `Nn1c(SCC(=O)Nc2nncs2)nnc1-c1cccnc1` to `CCOC(=O)N1CCN(C(=O)CSc2nc(O)c3cnn(-c4ccc(C)cc4)c3n2)CC1`, the “% Inhibition @ 10 uM” value rises from -1.24% to 1.9%.

Compared with `O=C(COc1ccc(Cl)cc1Br)Nc1ccc(S(=O)(=O)N2CCOCC2)cc1`, `Cc1ccc(C(=O)Nc2ccc(Cl)cn2)cc1S(=O)(=O)N1CCCCC1` is lower in “% Inhibition @ 10 uM” value: 1.57% for the first, -4.41% for the second.

Compared with `C=CCN1C(=O)C2(NC(CC)C3C(=O)N(c4ccc(Cl)cc4)C(=O)C32)c2ccccc21` (stereo not shown), `CCOC(=O)C1=CN(Cc2ccc(OC)cc2)C=C(C(=O)OCC)C1c1ccc(C)s1` is lower in “% Inhibition @ 10 uM” value: 3.53% for the first, -3.23% for the second.

Going from `CC(C)C(NC1CCS(=O)(=O)C1)C(=O)O` (stereo not shown) to `CC(=O)Nc1ccc2c(c1)CCC(C)C2=O` (stereo not shown), the “% Inhibition @ 10 uM” value falls from 37.3% to 4.44%.

Going from `Cc1cc2c(c(=O)o1)C(c1ccc(F)c(Br)c1)C(C#N)=C(N)O2` (stereo not shown) to `CSC1=C(C#N)C(c2ccco2)CC(=O)N1` (stereo not shown), the “% Inhibition @ 10 uM” value falls from 4.66% to -0.636%.

Compared with `CC1CCCCC1Nc1nc2ccccc2n2nnnc12` (stereo not shown), `Cc1cc2ccccc2c(=O)n1CC(=O)NCC(=O)N(C)C1CCCCC1` is higher in “% Inhibition @ 10 uM” value: -2.25% for the first, 6.57% for the second.

Compared with `CC1(C)COC(O)(C(F)(F)F)CC1=O` (stereo not shown), `Cc1nnc(SC2CCN(S(=O)(=O)c3cccc(C(F)(F)F)c3)CC2)s1` is lower in “% Inhibition @ 10 uM” value: 4.82% for the first, -1.07% for the second.

Going from `O=C(O)c1ccccc1N/C=C/[N+](=O)[O-]` to `O=C(c1ccccc1Cl)N(Cc1ccccc1)c1ccccn1`, the “% Inhibition @ 10 uM” value rises from -0.128% to 2.02%.

First: COC(=O)/C=C1/SC(N2CCOCC2)=NC1=O
Second: COc1ccccc1OCCCn1cccc1/C=C1\C(=N)N2N=C(N3CCOCC3)SC2=NC1=O
The “% Inhibition @ 10 uM” value of the first is lower: -0.386% for the first, 0.0579% for the second.

Going from `COc1ccc(S(=O)(=O)NCc2ccc(C(=O)N3CCC(Cc4ccccc4)CC3)cc2)cc1` to `O=C(c1ccc(Cn2c(SCc3ccccc3)nc3cccnc32)cc1)N1CCOCC1`, the “% Inhibition @ 10 uM” value rises from -7.16% to 9.02%.

Going from `Cc1ccc(N2CCN(S(=O)(=O)N3CCCCC3)CC2)c(C)c1` to `Cc1cc(=O)n2nc(N3CCCC(C(=O)NCCN4CCCCCC4)C3)sc2n1` (stereo not shown), the “% Inhibition @ 10 uM” value falls from 3.53% to 3%.

Compared with `O=C(O)c1cc(NC(=O)C(F)(F)F)cc(NC(=O)C(F)(F)F)c1`, `CN(C)CCCNC(=O)c1ccc2[nH]c3ccccc3c2c1` is higher in “% Inhibition @ 10 uM” value: -5.36% for the first, 3.27% for the second.

First: CCOc1cc2c(cc1OCC)C(C(C)CC)NCC2 (stereo not shown)
Second: COc1cc(C2=NOC(C(=O)NCCc3ccccc3)C2)cc(OC)c1OC (stereo not shown)
The “% Inhibition @ 10 uM” value of the first is lower: -4.15% for the first, -0.431% for the second.

Going from `Cc1nnc(N2CCC(C(=O)N3CCC(C)CC3)CC2)c2nn(-c3ccccc3)c(C)c12` to `Cc1cc(=O)n2nc(N3CCCC(C(=O)NCCN4CCOCC4)C3)sc2n1` (stereo not shown), the “% Inhibition @ 10 uM” value falls from 2.58% to -3.79%.

Going from `CCCN1CCC2(CC1)C(C#N)=C(N)Oc1c2sc2nc(C)cc(C)c12` to `Cc1nc2c(C(=O)NCCC(C)C)cnn2c(O)c1Cl`, the “% Inhibition @ 10 uM” value falls from 3.05% to -3.94%.

Compared with `COC(=O)C1=C(C)NC(=O)/C1=C\c1cc(C)n(-c2ccc(OC)c(Cl)c2)c1C`, `c1ccc(C(NCCNC(c2ccccc2)c2ccccc2)c2ccccc2)cc1` is higher in “% Inhibition @ 10 uM” value: -0.0626% for the first, 1.13% for the second.
